# The supplement of paper PMC9135407
# “And” between values parts separate entries of the source, which are not always exact repeats. Identical values can stand only once. Counter-ions that a name gives are not always drawn. The campaign covered roughly 5,800 compounds. About 620 (11%) showed activity.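 The calls were made as follows: active = score above a cut-off or among the top three wells of a plate; in these data no inactive exceeds 0.85.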 Only a part is listed here, and it is no random draw.
# System: primary human hepatic stellate cells (donor 1)
# Assay: scaled lipid accumulation score (0 = DMSO-like, 1 = nortriptyline-like); higher = stronger HSC inactivation (lipid re-accumulation), active = hit call of the paper
# Settings: 48 h
# [1] = library stock concentration: 10 mM
# [2] = library stock concentration: 6.3 mM
# [3] = library stock concentration: 3.33 mM
smiles,measurement,setting,value
O=C(O)CN(CCN(CC(=O)O)CC(=O)O)CC(=O)O.[Na+].[Na+].[Na+] [Trisodium ethylenediamine tetracetate],scaled lipid accumulation score,[1],inactive: ≤ 0
Oc1ccc(C2CNCCc3c2cc(O)c(O)c3Cl)cc1 (configuration not stated) [Fenoldopam hydrochloride],scaled lipid accumulation score,[1],inactive: ≤ -0.006
Oc1ccc(C2CNCCc3c2cc(O)c(O)c3Cl)cc1 (configuration not stated) [Fenoldopam bromide],scaled lipid accumulation score,[1],inactive: ≤ -0.07
Oc1ccc(C2CNCCc3c2cc(O)c(O)c3Cl)cc1 (configuration not stated),scaled lipid accumulation score,[1],inactive: ≤ 0
CC(=O)N[C@@H](Cc1c[nH]c2ccccc12)C(=O)O [Acetyltryptophan],scaled lipid accumulation score,[1],inactive: ≤ 0
CN(C)CCCNC(=O)[C@@H]1C[C@H](CN2CCOCC2)CN(Cc2ccc3ccccc3c2)C1,scaled lipid accumulation score,[1],active: 0.993
O=C1OC(c2ccc(O)cc2)(c2ccc(O)cc2)c2ccccc21 [Phenolphthalein],scaled lipid accumulation score,[2],inactive: ≤ -0.001
same,scaled lipid accumulation score,[1],inactive: ≤ 0
COc1cc(C)c(Sc2cnc(NC(=O)c3ccc(CNC(C)C(C)C)cc3)s2)cc1C(=O)N1CCN(C(C)=O)CC1 (configuration not stated),scaled lipid accumulation score,[1],active: 0.891
COCCOc1nc(-c2ccc(Cl)c(Cl)c2)n(-c2ccc(NC(=O)CCl)cc2)n1 [MI-2 (MALT1 inhibitor)],scaled lipid accumulation score,[3],inactive: 0.584
same,scaled lipid accumulation score,[1],inactive: 0.62
OC[C@@H](O)[C@@H](O)[C@H](O)[C@H](O)CO [D-Mannitol],scaled lipid accumulation score,[3],inactive: 0.012
same,scaled lipid accumulation score,[1],inactive: ≤ 0
OC[C@@H](O)[C@@H](O)[C@H](O)[C@H](O)CO [Mannitol],scaled lipid accumulation score,library stock concentration: 11 mM,inactive: ≤ 0
COc1cc2c(Nc3ccc(NC(=O)c4ccccc4)cc3)ncnc2cc1OCCCN1CCOCC1,scaled lipid accumulation score,[3],active: 1.06
same,scaled lipid accumulation score,[1],active: 1.11
C=CCc1ccc(O)c(OC)c1 [Eugenol],scaled lipid accumulation score,[1],inactive: ≤ 0
same,scaled lipid accumulation score,library stock concentration: 12.2 mM,inactive: ≤ -0.001
C[C@H](NCc1ccc(OCc2cccc(F)c2)cc1)C(N)=O [Safinamide Mesylate],scaled lipid accumulation score,[3],inactive: ≤ 0
same,scaled lipid accumulation score,[1],inactive: ≤ 0
CN(C)CC/C=C1/c2ccccc2COc2ccccc21.Cl [Doxepin hydrochloride],scaled lipid accumulation score,[2],active: 1.34
CCn1cc(C(=O)O)c(=O)c2cc(F)c(N3CCNCC3)nc21 [Enoxacin],scaled lipid accumulation score,[3],inactive: ≤ 0
same,scaled lipid accumulation score,library stock concentration: 6.2 mM,inactive: ≤ 0
same,scaled lipid accumulation score,[1],inactive: ≤ 0 and inactive: 0.209
"CC1(C)CCC=[N+]1[O-] [5,5-Dimethyl-1-pyrroline-N-oxide]",scaled lipid accumulation score,[1],inactive: ≤ -0.07
Cl.Cl.O=C(NCCCN1CCC2(CC1)OCc1ccccc12)[C@H]1CCCN1Cc1ccccc1,scaled lipid accumulation score,[1],active: 0.974
CC1(C)CCC(NC(=O)[C@@H](N)CCC(=O)O)CC1,scaled lipid accumulation score,[1],inactive: ≤ -0.001
